Measured values published in patent US20230250147A1 (Sanofi, published 2023).

Legend:
[1] = biological target: human glucagon-like peptide-1 (GLP-1) receptor (human, UniProt P43220 24-463); assay: cell-based or functional assay
Mouse GLP-1R = biological target: T1, Mouse GLP-1R (mouse, UniProt O35659 22-463); assay: cell-based or functional assay
T1 sequence (looked up): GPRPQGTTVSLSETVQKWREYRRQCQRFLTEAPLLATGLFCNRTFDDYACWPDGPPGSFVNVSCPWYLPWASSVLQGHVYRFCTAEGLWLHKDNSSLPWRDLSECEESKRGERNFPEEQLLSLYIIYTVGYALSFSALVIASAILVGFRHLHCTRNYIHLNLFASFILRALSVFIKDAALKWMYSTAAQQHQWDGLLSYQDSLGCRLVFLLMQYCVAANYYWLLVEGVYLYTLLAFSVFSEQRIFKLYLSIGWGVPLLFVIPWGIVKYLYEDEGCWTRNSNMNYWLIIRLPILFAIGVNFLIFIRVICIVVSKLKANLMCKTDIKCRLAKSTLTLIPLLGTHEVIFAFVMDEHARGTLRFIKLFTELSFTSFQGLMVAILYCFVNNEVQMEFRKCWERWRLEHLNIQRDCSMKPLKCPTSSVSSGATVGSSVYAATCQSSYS

Binder | HTRF cAMP EC50 [1] | HTRF cAMP EC50 (Mouse GLP-1R)
GLP-1RA/FGF21 Fc fusion protein SEQ ID NO: 56 (Fc fusion) AHGEGTFTSDKSIQLEKEAVRLFIEWLLAGGHPSGKPPPKGGGGGGGSGGGGSGGGGSA[… human IgG4 Fc with changes …]GGGSGSAHPIPDSSPLLQFGGQVRQRYLYTDDACQTEAHLEIREDGTVGGAADQSPESLLQLKALKPGVIQILGVKTSRFLCQRPDGALYGSLHFDPEACSFRELLLEDGYNVYQSEAHGLPLHLPGCKSPHRDPAPRGPARFLPLPGLPPAPPEPPGILAPQPPDVGSSDPLSMVGSQGRSPSYAS | 0.015 nM | 0.0667 nM
GLP-1RA/FGF21 Fc fusion protein SEQ ID NO: 175 (Fc fusion) HGEGTFTSDKSKQLAKEAVQLFIEWLLAGGPKKIRYSGGGGGGGSGGGGSGGGGSA[… human IgG4 Fc with changes …]GGGSGSAHPIPDSSPLLQFGGQVRQRYLYTDDACQTEAHLEIREDGTVGGAADQSPESLLQLKALKPGVIQILGVKTSRFLCQRPDGALYGSLHFDPEACSFRELLLEDGYNVYQSEAHGLPLHLPGCKSPHRDPAPRGPARFLPLPGLPPAPPEPPGILAPQPPDVGSSDPLSMVGSQGRSPSYAS | 0.0909 nM | –
GLP-1RA/FGF21 Fc fusion protein SEQ ID NO: 176 (Fc fusion) HGEGTFTSDKSKQLAERAVQLFIEWLLAGGPKKIRYSGGGGGGGSGGGGSGGGGSA[… human IgG4 Fc with changes …]GGGSGSAHPIPDSSPLLQFGGQVRQRYLYTDDACQTEAHLEIREDGTVGGAADQSPESLLQLKALKPGVIQILGVKTSRFLCQRPDGALYGSLHFDPEACSFRELLLEDGYNVYQSEAHGLPLHLPGCKSPHRDPAPRGPARFLPLPGLPPAPPEPPGILAPQPPDVGSSDPLSMVGSQGRSPSYAS | 0.0718 nM | –
GLP-1RA/FGF21 Fc fusion protein SEQ ID NO: 177 (Fc fusion) HGEGTFTSDKSKQLAKRAVQLFIEWLLAGGPKKIRYSGGGGGGGSGGGGSGGGGSA[… human IgG4 Fc with changes …]GGGSGSAHPIPDSSPLLQFGGQVRQRYLYTDDACQTEAHLEIREDGTVGGAADQSPESLLQLKALKPGVIQILGVKTSRFLCQRPDGALYGSLHFDPEACSFRELLLEDGYNVYQSEAHGLPLHLPGCKSPHRDPAPRGPARFLPLPGLPPAPPEPPGILAPQPPDVGSSDPLSMVGSQGRSPSYAS | 0.0486 nM | –
GLP-1RA/FGF21 Fc fusion protein SEQ ID NO: 180 (Fc fusion) HGEGTFTSDKSKQLAERLVQLFIEWLLAGGPKKIRYSGGGGGGGSGGGGSGGGGSA[… human IgG4 Fc with changes …]GGGSGSAHPIPDSSPLLQFGGQVRQRYLYTDDACQTEAHLEIREDGTVGGAADQSPESLLQLKALKPGVIQILGVKTSRFLCQRPDGALYGSLHFDPEACSFRELLLEDGYNVYQSEAHGLPLHLPGCKSPHRDPAPRGPARFLPLPGLPPAPPEPPGILAPQPPDVGSSDPLSMVGSQGRSPSYAS | 0.406 nM | –
GLP-1RA/FGF21 Fc fusion protein SEQ ID NO: 181 (Fc fusion) HGEGTFTSDKSKQLAKRLAQEFIEWLIKGGHSSGKPPPKGGGGGGGSGGGGSGGGGSA[… human IgG4 Fc with changes …]GGGSGSAHPIPDSSPLLQFGGQVRQRYLYTDDACQTEAHLEIREDGTVGGAADQSPESLLQLKALKPGVIQILGVKTSRFLCQRPDGALYGSLHFDPEACSFRELLLEDGYNVYQSEAHGLPLHLPGCKSPHRDPAPRGPARFLPLPGLPPAPPEPPGILAPQPPDVGSSDPLSMVGSQGRSPSYAS | 0.137 nM | –
GLP-1RA/FGF21 Fc fusion protein SEQ ID NO: 182 (Fc fusion) HGEGTFTSDKSKQLAERLVRLFIEWLIAGGHSSGKPPPKGGGGGGGSGGGGSGGGGSA[… human IgG4 Fc with changes …]GGGSGSAHPIPDSSPLLQFGGQVRQRYLYTDDACQTEAHLEIREDGTVGGAADQSPESLLQLKALKPGVIQILGVKTSRFLCQRPDGALYGSLHFDPEACSFRELLLEDGYNVYQSEAHGLPLHLPGCKSPHRDPAPRGPARFLPLPGLPPAPPEPPGILAPQPPDVGSSDPLSMVGSQGRSPSYAS | 0.123 nM | –
GLP-1RA/FGF21 Fc fusion protein SEQ ID NO: 183 (Fc fusion) HGEGTFTSDKSKQLAERLVREFIEWLIAGGHSSGKPPPKGGGGGGGSGGGGSGGGGSA[… human IgG4 Fc with changes …]GGGSGSAHPIPDSSPLLQFGGQVRQRYLYTDDACQTEAHLEIREDGTVGGAADQSPESLLQLKALKPGVIQILGVKTSRFLCQRPDGALYGSLHFDPEACSFRELLLEDGYNVYQSEAHGLPLHLPGCKSPHRDPAPRGPARFLPLPGLPPAPPEPPGILAPQPPDVGSSDPLSMVGSQGRSPSYAS | 0.0738 nM | –
GLP-1RA/FGF21 Fc fusion protein SEQ ID NO: 184 (Fc fusion) HGEGTFTSDKSKQLAERLVKLFIEWLIAGGHSSGKPPPKGGGGGGGSGGGGSGGGGSA[… human IgG4 Fc with changes …]GGGSGSAHPIPDSSPLLQFGGQVRQRYLYTDDACQTEAHLEIREDGTVGGAADQSPESLLQLKALKPGVIQILGVKTSRFLCQRPDGALYGSLHFDPEACSFRELLLEDGYNVYQSEAHGLPLHLPGCKSPHRDPAPRGPARFLPLPGLPPAPPEPPGILAPQPPDVGSSDPLSMVGSQGRSPSYAS | 0.216 nM | –
GLP-1RA/FGF21 Fc fusion protein SEQ ID NO: 185 (Fc fusion) HGEGTFTSDKSKQLAERLAREFIEWLIAGGHSSGKPPPKGGGGGGGSGGGGSGGGGSA[… human IgG4 Fc with changes …]GGGSGSAHPIPDSSPLLQFGGQVRQRYLYTDDACQTEAHLEIREDGTVGGAADQSPESLLQLKALKPGVIQILGVKTSRFLCQRPDGALYGSLHFDPEACSFRELLLEDGYNVYQSEAHGLPLHLPGCKSPHRDPAPRGPARFLPLPGLPPAPPEPPGILAPQPPDVGSSDPLSMVGSQGRSPSYAS | 0.0138 nM | –
GLP-1RA/FGF21 Fc fusion protein SEQ ID NO: 186 (Fc fusion) HGEGTFTSDKSKQLAERLAKLFIEWLIAGGHSSGKPPPKGGGGGGGSGGGGSGGGGSA[… human IgG4 Fc with changes …]GGGSGSAHPIPDSSPLLQFGGQVRQRYLYTDDACQTEAHLEIREDGTVGGAADQSPESLLQLKALKPGVIQILGVKTSRFLCQRPDGALYGSLHFDPEACSFRELLLEDGYNVYQSEAHGLPLHLPGCKSPHRDPAPRGPARFLPLPGLPPAPPEPPGILAPQPPDVGSSDPLSMVGSQGRSPSYAS | 0.124 nM | –
GLP-1RA/FGF21 Fc fusion protein SEQ ID NO: 217 (Fc fusion) YSEGTFTSDLSILCEKRAVHEFIEWLIAGGPSSGKPPPKPGCGSGGGGGSGGGGSGGGGGA[… human IgG1 Fc with changes …]GGGSGSAHPIPDSSPLLQFGGQVRQRYLYTDDACQTEAHLEIREDGTVGGAADQSPESLLQLKALKPGVIQILGVKTSRFLCQRPDGALYGSLHFDPEACSFRELLLEDGYNVYQSEAHGLPLHLPGCKSPHRDPAPRGPARFLPLPGLPPAPPEPPGILAPQPPDVGSSDPLSMVYPSQGRSPSYAS | 0.00762 nM | 0.00539 nM
GLP-1RA/FGF21 Fc fusion protein SEQ ID NO: 219 (Fc fusion) GHGEGTFTSDKSKQLEEEAVRLFIEWLKAGGGGGGGGGSGGGGSGGGGSA[… human IgG1 Fc with changes …]GGGSGSAHPIPDSSPLLQFGGQVRQRYLYTDDACQTEAHLEIREDGTVGGAADQSPESLLQLKALKPGVIQILGVKTSRFLCQRPDGALYGSLHFDPEACSFRELLLEDGYNVYQSEAHGLPLHLPGCKSPHRDPAPRGPARFLPLPGLPPAPPEPPGILAPQPPDVGSSDPLSMVYPSQGRSPSYAS | 0.222 nM | 0.422 nM
GLP-1RA/FGF21 Fc fusion protein SEQ ID NO: 220 (Fc fusion) GHGEGTFTSDKSKQLEEEAVRLFIEWLKAGGPAPAPAPAPAPAGGG[… human IgG1 Fc with changes …]GGGSGSAHPIPDSSPLLQFGGQVRQRYLYTDDACQTEAHLEIREDGTVGGAADQSPESLLQLKALKPGVIQILGVKTSRFLCQRPDGALYGSLHFDPEACSFRELLLEDGYNVYQSEAHGLPLHLPGCKSPHRDPAPRGPARFLPLPGLPPAPPEPPGILAPQPPDVGSSDPLSMVYPSQGRSPSYAS | 0.0955 nM | 0.11 nM
GLP-1RA/FGF21 Fc fusion protein SEQ ID NO: 221 (Fc fusion) GHGEGTFTSDKSKQLEEEAVRLFIEWLKAGPAPAPAEAAAKEAAAKPAPAPA[… human IgG1 Fc with changes …]GGGSGSAHPIPDSSPLLQFGGQVRQRYLYTDDACQTEAHLEIREDGTVGGAADQSPESLLQLKALKPGVIQILGVKTSRFLCQRPDGALYGSLHFDPEACSFRELLLEDGYNVYQSEAHGLPLHLPGCKSPHRDPAPRGPARFLPLPGLPPAPPEPPGILAPQPPDVGSSDPLSMVYPSQGRSPSYAS | 0.202 nM | 0.162 nM
GLP-1RA/FGF21 Fc fusion protein SEQ ID NO: 222 (Fc fusion) GHGEGTFTSDKSKQLEEEAVRLFIEWLKAGGAEAAAKEAAAKEAAAKGGG[… human IgG1 Fc with changes …]GGGSGSAHPIPDSSPLLQFGGQVRQRYLYTDDACQTEAHLEIREDGTVGGAADQSPESLLQLKALKPGVIQILGVKTSRFLCQRPDGALYGSLHFDPEACSFRELLLEDGYNVYQSEAHGLPLHLPGCKSPHRDPAPRGPARFLPLPGLPPAPPEPPGILAPQPPDVGSSDPLSMVYPSQGRSPSYAS | 0.327 nM | 0.201 nM
GLP-1RA/FGF21 Fc fusion protein SEQ ID NO: 223 (Fc fusion) GHGEGTFTSDKSKQLEEEAVRLFIEWLKAGGAEAAAKEAAAKEAAAKEAAKALEAEAAKEAAKEAAKEAAKAGGG[… human IgG1 Fc with changes …]GGGSGSAHPIPDSSPLLQFGGQVRQRYLYTDDACQTEAHLEIREDGTVGGAADQSPESLLQLKALKPGVIQILGVKTSRFLCQRPDGALYGSLHFDPEACSFRELLLEDGYNVYQSEAHGLPLHLPGCKSPHRDPAPRGPARFLPLPGLPPAPPEPPGILAPQPPDVGSSDPLSMVYPSQGRSPSYAS | 0.0808 nM | 0.0795 nM
